Source: PubChem BioAssay AID485344 (National Center for Advancing Translational Sciences (NCATS), 2010)
Out of some 340,000 compounds screened, about 6,900 (2%) were called active. Rule as the data show it: active = inhibition above about 30%; inactive = below that, where a call was filed. This is a selection; strong and weak results do not stand in their true shares. Where no call is shown, the source filed none.

molecular target: D(2) dopamine receptor (Homo sapiens) (UniProt P14416); assay: HTS Assay for Allosteric Antagonists of the Human D2 Dopamine Receptor: Primary Screen for Antagonists; conditions: HEK293 TREx D2 cells, calcium flux, dopamine EC80; at 10 µM; stronger effect = higher value; also: 0% is about no effect
Procedure, shortened: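 Tetracycline-induced HEK293 TREx cells expressing D2 receptor forced-coupled to calcium signalling, loaded with no-wash calcium dye. Compounds added and calcium flux read 180 s, then dopamine added at EC80 and read a further 180 s.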

UniProt P14416, sequence (P14416 whole entry, looked up): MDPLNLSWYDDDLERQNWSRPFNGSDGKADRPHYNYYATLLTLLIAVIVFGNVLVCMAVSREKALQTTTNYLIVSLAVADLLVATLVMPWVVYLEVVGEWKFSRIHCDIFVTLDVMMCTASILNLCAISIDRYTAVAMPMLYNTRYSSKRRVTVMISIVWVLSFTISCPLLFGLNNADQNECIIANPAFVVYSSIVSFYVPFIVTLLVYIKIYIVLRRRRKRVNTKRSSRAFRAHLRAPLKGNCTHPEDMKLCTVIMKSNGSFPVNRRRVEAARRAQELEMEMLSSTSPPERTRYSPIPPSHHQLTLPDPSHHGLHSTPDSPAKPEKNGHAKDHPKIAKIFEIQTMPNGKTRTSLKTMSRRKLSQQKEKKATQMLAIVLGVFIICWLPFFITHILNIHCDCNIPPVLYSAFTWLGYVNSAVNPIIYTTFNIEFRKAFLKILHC

| SMILES | inhibition |
| --- | --- |
| COc1ccccc1N1CCN(Cc2cnc3ccc(Cl)cn23)CC1 | active: 55.2% |
| COc1ccc(C2C(C#N)=C(N)Oc3n[nH]c(C)c32)cc1CN1CCN(c2ccc(F)cc2)CC1 (stereo unspecified) | active: 53.9% |
| COc1ccc(NC(=O)CC2SC(N3CCCCC3)=NC2=O)cc1OC (stereo unspecified) | active: 40.6% |
| CCC(=O)Nc1ccc2nc(SCCOc3cccc(C)c3)sc2c1 | -25.6% |
| CC(=O)NC12CC3CC(C1)CC(C(=O)OCC(=O)Nc1c(F)cccc1F)(C3)C2 | active: 37% |
| CC(C)(C)NC(=O)Cn1cc(S(=O)(=O)Cc2ccc(F)cc2)c2ccccc21 | 11.6% |
| COCCn1c(SCC(=O)c2ccc(OC)cc2)nc2cc(C(=O)NC3CCCC3)ccc2c1=O | 3.45% |
| CC1CCN(c2ccc(-c3cccc(NS(=O)(=O)c4ccc(Cl)s4)c3)nn2)CC1 | -0.016% |
| CCOC(=O)CNC(c1ccccc1)c1cc(Br)ccc1NC(=O)c1ccc(Cl)cc1 (stereo unspecified) | -0.819% |
| Cc1ccc(S(=O)(=O)Nc2ccc(-c3ccc(N4CCCCCC4)nn3)cc2)cc1C | -0.947% |
| C#CCSc1nc2sc3c(c2c(=O)n1-c1cccc(OC)c1)CCN(C(C)=O)C3 | 9.5% |
| COc1cc(Cl)c(NC(=O)c2cc(S(=O)(=O)N3CCOCC3)cn2C)c(OC)c1 | 1.47% |
| CCOC(=O)c1ccc(-c2ccc(/C=C(\C#N)C(=O)Nc3c(C)cccc3Cl)o2)cc1 | -8.6% |
| CCc1nn2c(-c3ccco3)ccnc2c1-c1ccc(F)cc1 | 5.31% |
| Cn1c(=O)[nH]c(=O)c2c1nc(N(CCO)Cc1ccccc1)n2Cc1ccccc1Cl | active: 73.5% |
| COc1ccc(-c2n[nH]c3c2C(c2ccc(Cl)cc2Cl)NC3=O)cc1 (stereo unspecified) | 0.585% |
| CCN(CCCNC(=O)c1ccc(Sc2ccc(C)cc2)c(NC(C)=O)c1)c1cccc(C)c1 | 16.3% |
| Cc1ccc2oc(-c3ccc(C)c(NC(=O)c4ccc5c(c4)OCCO5)c3)nc2c1 | 5.61% |
| COc1ccc(NC(=O)Cn2c(=O)n(-c3cccc(C)c3)c(=O)c3c2c2cc(C)ccc2n3C)cc1OC | -3.32% |
| CCOc1cccc(C(=O)Nc2ccc3oc(-c4ccc(C(C)(C)C)cc4)nc3c2)c1 | 1.13% |
| COc1ccc(CN2CCC(CO)(Cc3ccccc3)CC2)cc1Cn1cccn1 | active: 37% |
| Cc1ccc(F)cc1NC(=O)CCc1c(C)nn(-c2ccc(N3CCCCC3)nn2)c1C | -5.27% |
| CC(CCO)Nc1nc2c(c(=O)n(C)c(=O)n2C)n1Cc1ccc(Br)cc1 (stereo unspecified) | 5.05% |
| Cc1cc2c(n1-c1ccc(C(=O)NCC(C)c3ccccc3)cc1)CCCC2 (stereo unspecified) | 26.7% |

| SMILES | inhibition |
| --- | --- |
| Cc1cccc(Nc2nc(Nc3cccc(C)c3)nc(N3CCOCC3)n2)c1 | 7.49% |
| COc1cc(OC)c(NC(=O)CSC2=Nc3ccccc3N=C(c3ccc(F)cc3)C2)cc1Cl | 5.52% |
| CCOc1ccc(CNC(=O)c2ccc3c(c2)sc2nc(-c4ccc(OC)cc4)cn23)cc1 | 3.64% |
| COc1ccc(S(=O)(=O)N(C)CC(=O)NCc2ccco2)cc1OC | active: 33.7% |
| Cc1sc(C2C(C#N)=C(N)N(c3cccc(Cl)c3)C3=C2C(=O)CCC3)cc1CN1CCOCC1 (stereo unspecified) | 6.19% |
| CCOc1ccc(-c2nc(-c3ccccc3C)no2)cc1 | active: 52.9% |
| O=S(=O)(NCc1ccc(F)cc1)c1ccc2[nH]c3c(c2c1)CCCCC3 | 1.25% |
| CCOC(=O)c1nc(Nc2ccc(OC)cc2)c2ccccc2n1 | 4.44% |
| CC(C)CCNC(=O)c1ccc(Cn2c(=O)c3cccn3c3cccnc32)cc1 | -4.62% |
| Cc1ccccc1Nc1c(-c2cccc(O)c2)nc2ccc(Br)cn12 | 15.7% |
| COc1ccc(N2CCN(C(=O)Cn3cnc4sc(C)c(S(=O)(=O)N5CCC(C)CC5)c4c3=O)CC2)cc1 | 4.86% |
| CCOC(=O)c1ccc(N2C(=O)c3n[nH]c(C)c3C2c2ccc(O)c(OC)c2)cc1 (stereo unspecified) | 18.4% |
| Cc1cc(=O)oc2c3c(ccc12)OCN(Cc1ccccc1Cl)C3 | 1.66% |
| Cc1ccc(-n2ncc(C(=O)N3CCN(c4ccccn4)CC3)c2C2CCN(C(=O)OC(C)(C)C)CC2)cc1C | 1.27% |
| COc1ccc(Cc2nc(-c3ccccn3)no2)cc1 | active: 34.2% |
| CCOC(=O)c1ccccc1NC(=O)Cc1c(C(=O)O)c(C)cn1C | -5.94% |
| COc1ccc(C2=CC(c3ccc(N(C)C)cc3)n3nnnc3N2)cc1 (stereo unspecified) | -18.8% |
| Clc1ccc(OCCCNCc2ccccc2)c2ccccc12 | active: 41.5% |
| Cc1c(CNC2CCCCCC2)c(C(=O)O)c(C)n1Cc1c(F)cccc1Cl | -11.4% |
| COc1ccc(C(=O)Nc2onc3c2CCCC3)cc1 | 3.51% |
| CCOc1ccc(N2C(=O)CC(NC3CCCCNC3=O)C2=O)cc1 (stereo unspecified) | active: 45.3% |
| COc1ccc(NC(=O)Cn2cnc3c(nc4n3CCCCC4)c2=O)c(OC)c1 | 4.48% |
| COCCCn1c(=N)c(C(=O)NC2CCCCC2)cc2c(=O)n3ccccc3nc21 | -1.55% |
| COc1cc(NC(=O)C(NC(=O)C2CCC(C)CC2)C(C)C)cc(OC)c1OC (stereo unspecified) | -2.51% |

| SMILES | inhibition |
| --- | --- |
| C(=C\c1ccccc1)/C=N/N1CCN(Cc2ccccc2)CC1 | active: 40% |
| COc1ccc(Cl)cc1NS(=O)(=O)c1c(C)nc2scc(C)n2c1=O | -7.54% |
| COCCn1c(CNC(=O)c2cc([N+](=O)[O-])ccc2Cl)nc2cccnc21 | 2.62% |
| O=c1n(Cc2ccc(F)cc2Cl)c2ccccc2c2nc(-c3ccccc3)nn12 | -7.84% |
| CCCCN(CC)CCCNC(=O)c1cn(CC(C)C)c(=O)c2c1c1ccccc1n2C | 10.7% |
| COc1ccc(-c2cn3nc(N4CCCC(C(=O)Nc5ccc(Cl)cc5C)C4)sc3n2)cc1 (stereo unspecified) | -16.8% |
| CC1Cc2ccccc2N1S(=O)(=O)c1nnc(NC(=O)c2ccccc2Br)s1 (stereo unspecified) | -21.9% |
| Cc1[nH]c2ccc(F)cc2c1CCNC(=O)c1cc2cc(Cl)ccc2oc1=O | -13.4% |
| COc1ccccc1N1CCN(S(=O)(=O)c2ccc3c(c2)CC(C)N3C(C)=O)CC1 (stereo unspecified) | active: 32.8% |
| COc1ccccc1CNC(=O)Cn1c(=O)ccc2cc(S(=O)(=O)N3CCC(C)CC3)ccc21 | 5.71% |
| COC(=O)c1c(C)oc2c1cc(NS(=O)(=O)c1c(C)cc(C)cc1C)c1ccccc12 | 6.5% |
| O=S(=O)(c1ccc(Cl)cc1)c1nc(-c2ccccc2Br)oc1N1CCOCC1 | 14.6% |
| CCC(C)(C)n1nnnc1C(c1ccc(O)c(OC)c1)N1CCc2ccccc2C1 (stereo unspecified) | active: 35.1% |
| Cc1ccc(NC(=O)CCc2c(C)nn(-c3ccc(N4CCCCC4)nn3)c2C)cc1F | 4.38% |
| COC(=O)c1cc2sc(C)cc2n1Cc1ccc(F)cc1Cl | -13.1% |
| O=C(Nc1cccc(-c2nnc(-c3ccccc3)o2)c1)C1CCCO1 (stereo unspecified) | active: 63% |
| CCOc1ccc2nc(N(Cc3cccnc3)C(=O)c3ccc4c(c3)OCCO4)sc2c1 | -9.77% |
| COc1cccc(CSc2nc3cc(OC)c(OC)cc3c3nc(CCn4nc(C)cc4C)nn23)c1 | -5.02% |
| CN1CCC(=C2c3ccccc3C=Cc3ccccc32)CC1 | active: 77.1% |
| CC1Cc2cc(S(=O)(=O)NCc3ccc(F)cc3)ccc2N1C(=O)C1CCC1 (stereo unspecified) | -4.53% |
| O=C(NCc1cccs1)c1ccc(CSc2nc3ccncc3n2Cc2cccc(F)c2)cc1 | 2.66% |
| Cc1ccc(NC(=O)C2CCN(c3nc4ccccc4[nH]3)CC2)cc1Cl | -22.4% |
| COc1ccc(C)cc1NC(=O)CN1C(=O)CCc2cc(S(=O)(=O)N3CCOCC3)ccc21 | 11.5% |
| CC(=O)c1ccc(NC(=O)CSc2nc(-c3ccccc3F)nc3c2c(=O)n(C)c(=O)n3C)cc1 | 6.53% |

| SMILES | inhibition |
| --- | --- |
| Cc1ccc(C(c2sc3nc(-c4ccco4)nn3c2O)N2CCCCC2)cc1 (stereo unspecified) | -5.78% |
| Cc1ccc(N(C)S(=O)(=O)c2ccc3[nH]cc(C(=O)O)c(=O)c3c2)cc1C | 9.18% |
| C=Cc1ccc(Cn2c(=O)n(-c3ccccc3C)c(=O)c3c4c(sc32)CN(C(C)=O)CC4)cc1 | 6.1% |
| CCc1nn(CC(=O)Nc2c(C)cc(C)cc2C)c(=O)c2cc3sccc3n12 | 9.21% |
| OC1CCCN(c2c3c(nc4cc(-c5cccc(F)c5)nn24)CCCC3)C1 (stereo unspecified) | active: 46.6% |
| COc1ccc(-n2c(-c3ccc(Br)cc3)n[nH]c2=S)cc1 | active: 31% |
| Cc1ccc(C(=O)Nc2ccc3c(c2)N(C)C(=O)c2ccccc2S3)cc1F | 6.68% |
| CCOC(=O)c1c(C)c(C(=O)NCCc2ccc(OC)cc2)c(C)n1CC | -4.06% |
| COc1cccc(-c2cc(C(=O)NCCc3ccc(C)cc3)[nH]n2)c1 | -5.74% |
| CC(=O)c1c(C)n(-c2cccc(C)c2)c2ccc(OC(=O)COc3ccccc3)cc12 | 23.3% |
| Cc1ccc(NS(=O)(=O)c2c(C(=O)N3CCCCCC3)c(C)n(C)c2C)cc1F | 7.18% |
| O=C(Nc1ccc(Br)cc1)c1ccc(Br)c(S(=O)(=O)NCc2ccccc2)c1 | 13.1% |
| CCOc1ccc(CNC(=O)Cn2nc(C)c3sc4ccccc4c3c2=O)cc1 | 14.7% |
| COC(=O)c1[nH]c2cc(OC)ccc2c1NC(=O)CCN1CCN(c2ccccc2)CC1 | active: 63.2% |
| O=C(CSc1nc2c([nH]c3ccccc32)c(=O)n1-c1ccc(F)cc1)N1CCCCCC1 | -8.52% |
| COc1ccccc1CNC(=O)Nc1ccc2c(c1)N(C)C(=O)c1ccccc1S2 | 7.8% |
| COc1ccc(Br)cc1CNC(=O)CCC(=O)N1CCSc2ccccc21 | -14.9% |
| Clc1cccc(-c2noc3ncnc(NC4CCCCC4)c23)c1 | 7.87% |
| O=C(Cn1cc(SCc2cccc(C(F)(F)F)c2)c2ccccc21)N1CCCCCC1 | 18.4% |
| Cc1[nH]c(=S)[nH]c(=O)c1Cc1ccc(OCC(C)C)cc1 | active: 30.7% |
| COc1cccc2cc(-c3nc(-c4cccs4)no3)c(=O)oc12 | -5.29% |
| COc1cc(NC(=O)CCc2c(C)nc3c(c(C)nn3-c3ccccc3)c2C)cc(OC)c1OC | 3.87% |
| CN1C(=O)C2CCCCN2c2ccc(C(=O)NCc3ccccc3Br)cc21 (stereo unspecified) | 3.98% |
| COc1ccc(S(=O)(=O)c2cn(CC(=O)Nc3ccccc3)c3ccc(Cl)cc3c2=O)cc1 | -3.99% |
